# Results taken from PubChem BioAssay AID445 (National Center for Advancing Translational Sciences (NCATS), 2006).
# About 40 (0.04%) of roughly 110,000 compounds were called active. Inconclusive means that the source gave no clear call. Such entries were picked first, then a sample of the others. The call rests on the fitted dose curve; in most records, active means well fitted curve in the direction sought with a large enough effect in the signal ratio (not every such curve was filed as active); inconclusive means small, poorly fitted or top-dose-only effect, or a change in a side signal; inactive means flat fitted curve, though single readings scatter; the % refers to the signal ratio. Potencies beside an inconclusive call are fits to weak or partial responses and may not hold up.
# Experiment: IkB Signaling;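 on IkBa stabilization activation: 0% = basal untreated cells and 100% = reference inhibitor full response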
# Conditions: ABC-DLBCL IkBa-CBG/CBR dual luciferase ratio (green luciferase fused to IkBa over red control in OCI-Ly3 lymphoma cells), 4 h; IkBa stabilization activation: at 57.1 µM (top of the series), scaled: untreated 0%, proteasome inhibitor 100% unless noted
# How it was run: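 Luminescence ratio of IκBα-fused green versus native red beetle luciferase in OCI-Ly3 cells, 4 h post-doxycycline with compound; red signal alone, scaled from basal (0%) to zero light (-100%), flagged nonspecific or cytotoxic effects.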
# Potency means the concentration at half of the fitted maximal effect.
SMILES,IkBa stabilization activation,Potency
Cc1cc(C)cc(NC(=O)N2CCC3(CC2)Oc2ccccc2C(=O)N3Cc2ccccc2F)c1,inconclusive: 1.44% [signal inhibitor],
CC1CCc2c(sc3nc(-c4cc5cc(Br)ccc5oc4=O)[nH]c(=O)c23)C1 (stereo not drawn),inactive,
CCOc1ccc(NC(=O)c2c(NCc3cccnc3)sc3c2CCCC3)cc1,inconclusive: 4.45% [signal inhibitor],
CCOC(=O)c1ccc(CN(Cc2ccc(F)cc2)S(=O)(=O)c2ccc(F)c(C(=O)Nc3ccc(Cl)cc3F)c2)cc1,inconclusive: 0.456% [signal inhibitor],
COc1cccc(N2CCN(C(=O)c3cccc(-n4c(C)nc5cccnc54)c3)CC2)c1,inconclusive: -1.22% [signal inhibitor],
O=C(O)CCCC(=O)Nc1ccc(Br)cc1C(=O)O,,"inconclusive: 15.8 µM [signal inhibitor, partial curve]"
COc1ccc(CCn2c(=O)c3cccnc3n(CC(=O)Nc3ccc(C)c(F)c3)c2=O)cc1OC,,"inconclusive: 31.6 µM [signal inhibitor, single point]"
C=Cc1ccc(Cn2c(C(=O)O)c(CNC3CCCCC3)c3ccc(C)cc32)cc1,inactive,
Oc1[nH]c2ccccc2c1/C=N/c1nccs1,inactive,
CC1(C)CC2CC(C)(CN2CC(=O)C(C#N)c2ccccc2)C1 (stereo not drawn),inconclusive: 1.32% [signal inhibitor],
Cc1sc2c(c1C)c(=O)n(-c1ccc(Cl)cc1)c(=O)n2Cc1cc(=O)n2ccccc2n1,inconclusive: 2.77% [signal inhibitor],
Cc1ccc2nc(N3CCC(C(=O)N4CCN(c5cccc(C)c5C)CC4)CC3)[nH]c2c1,inconclusive: 0.565% [signal inhibitor],
FC(F)(F)c1cccc(-c2nc3nc(Cl)c(Cl)nc3[nH]2)c1,,"inconclusive: 0.794 µM [signal inhibitor, full curve]"
COc1ccc(C2C(C(N)=O)=C(C)Nc3nc(SCc4ccccc4Cl)nn32)cc1OC (stereo not drawn),inconclusive: 1.97% [signal inhibitor],
Cc1ccc(CNC(=O)c2nc(SCc3ccccc3F)ncc2Cl)cc1,inconclusive: -0.718% [signal inhibitor],
CCOC(=O)c1ccc(N2C(=O)c3n[nH]c(C)c3C2c2cccc(Br)c2)cc1 (stereo not drawn),inconclusive: -7.68% [signal inhibitor],
CCc1nc2c(c(=O)[nH]1)C1(CCCC1)Cc1ccccc1-2,inactive,
COc1ccc(CNC(=O)Cn2nnc(-c3ccc(C(F)(F)F)cc3)n2)cc1,inconclusive: -0.412% [signal inhibitor],
CC1CCN(S(=O)(=O)c2ccc3c(c2)oc(=O)n3CC(=O)NCc2ccc3c(c2)OCO3)CC1,inconclusive: 11.1% [signal inhibitor],
O=c1cc(-c2ccccc2)n2c(SCc3ccc(Cl)cc3)nnc2[nH]1,inconclusive: 9.85% [signal inhibitor],
O=C(c1ccc(CSCc2ccccc2F)o1)N1CCN(c2ccc(N3CCOCC3)nn2)CC1,inconclusive: -5.51% [signal inhibitor],
COc1ccc2ccccc2c1/C=C\C(=O)c1ccccc1,,"inconclusive: 5.01 µM [rising, single point]"

SMILES,IkBa stabilization activation,Potency
NCc1nc2cccnc2n1Cc1ccccc1Cl,inactive,
CC1(c2ccc3noc(-c4ccc(Cl)cc4)c3c2)OCCO1,inactive,
Cc1cccc(CNc2ccnc(-c3ccccc3CN(C)C)n2)c1,"inactive: -1.38% [at 11.4 µM, scaled: untreated 0%, proteasome inhibitor 100%]",
COCCNc1ncnc2c1c(-c1ccccc1)cn2-c1ccc(C)c(Cl)c1,inconclusive: -1.81% [signal inhibitor],
O=C(NCc1ccco1)c1ccc2c(c1)N(Cc1ccccc1)C(=O)c1ccccc1S2(=O)=O,inconclusive: -0.87% [signal inhibitor],
CCOC(=O)N1CCN(C(=O)c2cccn3c(=O)c4sccc4nc23)CC1,inactive,
COc1ccc(-n2ncc3c(NC(C)(C)CO)ncnc32)cc1,inactive,
CC1CCN(S(=O)(=O)c2cccc(C(=O)Nc3ccccn3)c2)CC1,inactive,
CCN(CC)S(=O)(=O)c1ccc(NC(=O)NCc2noc3ccc(C)cc23)cc1,inactive,
Cc1ccc(CNC(=O)c2oc3c(c2C)-c2nn(Cc4ccc(Cl)cc4)cc2CC3)cc1,inconclusive: -3.02% [signal inhibitor],
Cc1cc(S(=O)(=O)C(CNC(=O)c2ccc(OC(C)C)cc2)c2cccs2)ccc1F (stereo not drawn),inconclusive: 4.66% [signal inhibitor],
CC1CCCN(S(=O)(=O)c2ccc(NC(=O)c3cccc(-n4cnnn4)c3)cc2)C1 (stereo not drawn),inconclusive: 4.28% [signal inhibitor],
COc1ccc(N2CCN(Cc3nc4c(c(=O)[nH]c(=O)n4C)n3Cc3ccc(Cl)cc3)CC2)cc1,inconclusive: 1.87% [signal inhibitor],
COc1ccc(CCNC(=O)c2c(O)c3cccc4c3n(c2=O)CC4)cc1,inconclusive: 8.91% [signal inhibitor],
Cc1cccc(-c2nnc(SCc3cc(=O)c4cccc(Cl)c4[nH]3)n2C)c1,inconclusive: -0.11% [signal inhibitor],
COc1cccc2c1ncc1c(-c3ccc(C)cc3)nn(-c3cccc([N+](=O)[O-])c3)c12,inactive,
CCCOC(=O)Nc1ccc(N2CCCCC2)cc1,inactive,
COc1ccc(NC(=O)N(CCC(C)C)C(C)c2cccs2)c(OC)c1 (stereo not drawn),inconclusive: 0.604% [signal inhibitor],
Cc1ccc(C2CCN(C(=O)c3cnn(-c4cccc(Cl)c4)c3C3CCN(C(=O)OC(C)(C)C)CC3)C2)cc1 (stereo not drawn),inconclusive: -2.66% [signal inhibitor],
CN(C)c1ncc2ncc(=O)n(Cc3cccs3)c2n1,"inactive: 2.92% [at 11.4 µM, scaled: untreated 0%, proteasome inhibitor 100%]",
COc1ccc(OC)c(NC(=O)c2cc(-c3ccc(Cl)s3)nc3ccccc23)c1,,"inconclusive: 15.8 µM [signal inhibitor, partial curve]"
